Sequences and labels used below:
B1: TPR 5TU (parent)
chain: GGAUCUUCUCGAUCUAACAAAAAAGACAAAUCUGCCACAAAGCUUGAGAGCAUCUUCGGAUGCAGAGGCGGCAGCCUUCGGUGGCGCGAUAGCGCCAACGUUCUCAACUAUGACACGCAAAACGCGUGCUCCGUUGAAUGGAGUUUAUCAUG

Variants at the background level are over-represented here.

Variants of B1 are the subject of this data set. As to the kind of experiment: polymerase ribozyme fitness, log enrichment relative to wild type (log ratio); higher = more active; in vitro selection for triplet polymerase activity. An outline of the steps:
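PCR was used to build mutant libraries for each subunit of a heterodimeric triplet polymerase ribozyme, which were then transcribed. A single in vitro selection round, in triplicate, used a frozen incubation at −7 °C and recovered extended constructs by gel excision, streptavidin beads and RT-PCR. Fitness is the logarithm of genotype enrichment relative to wild-type enrichment, averaged over replicates with inverse-variance weights. The logarithm is base 2, and after Illumina sequencing only genotypes with ≥10 input reads and ≥1 read per output were kept.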
For the variant A21G C54G G92C C108U G124A G133A, the “polymerase ribozyme fitness (log ratio)” value is at most -4.2. The value for A21C U55A was -0.0725; that for A21G C57A G74A C76G C87U G124U was at most -4.2. The value for A21G A91G A115U C116A was -3.91. In the case of A21C, the “polymerase ribozyme fitness (log ratio)” value was 0.199.

As for A21U, the “polymerase ribozyme fitness (log ratio)” value amounted to 0.554.

For the variant A21G, the “polymerase ribozyme fitness (log ratio)” value was 0.531. The value for A21C G88U A142U was at most -4.2; that for A21U A26G U33A A142C G143U U146G C149G was at most -4.2. Turning to A21C U56A C87G U101C A147C, the “polymerase ribozyme fitness (log ratio)” value is at most -4.2. The value for A21G U61A G94C C95G A121C G143C was at most -4.2. On to A21C G50A G80C, for which the “polymerase ribozyme fitness (log ratio)” value was at most -4.2.

For the variant A21G U31G C38U A66G C93A G124U U144A, the “polymerase ribozyme fitness (log ratio)” value is at most -4.2. The value for A20U U53A G71A A91U A98G A120C G141U was at most -4.2; that for A21G A26G C93U C125G G141U was at most -4.2; that for A21U A41G was 1.06.

With A21U A73U A91U A97U, the “polymerase ribozyme fitness (log ratio)” value was at most -4.2.

Take A21C G25A G48C A52G U90G C93A C114U: the “polymerase ribozyme fitness (log ratio)” value was at most -4.2. To A21C U56A C75A C99U belongs at most -4.2; to A20U U33C G71A U104A A106G A107G A137C, at most -4.2; to A21G A24C U31C C69G U148C, at most -4.2. To A21G A28G A115G belongs at most -4.2; to A21U A26U A60C C85U G92U C103A C116A A120U, at most -4.2. To A21G G50A C95G A98G G117A U139A belongs at most -4.2; to A21G C51U U53A C96U G126U, -2.46. For A21C A30G U45A U53A A60C U90A G94U G100U, the “polymerase ribozyme fitness (log ratio)” value was at most -4.2. To A21U A26G G59C G86C G88A C118G U135A belongs at most -4.2. To A20U U45A G84A C93U A113U belongs at most -4.2; to A21G A26G A41U G46C U55A C85U A120G, at most -4.2.

Take A21C C32U C36G C79U A142U U148C: the “polymerase ribozyme fitness (log ratio)” value is at most -4.2. The value for A21C A28C G48U C96A G117U was at most -4.2. Take A21C G50A A64G G70A U78G G92A C99A C108G: the “polymerase ribozyme fitness (log ratio)” value was at most -4.2. In the case of A21C C54G U78A, the “polymerase ribozyme fitness (log ratio)” value is at most -4.2. Turning to A21G A28C U53A C75A G86A U127A G140A, the “polymerase ribozyme fitness (log ratio)” value was at most -4.2. The value for A21C A91G C96U was -3.34; that for A21U A23U A40U C57U C63A G92C A121G C125G A147C was at most -4.2. To A21C U45G C54G G143C belongs at most -4.2; to A21G G50U G59A G70A C72A C85G C93U, at most -4.2; to A21U A29U U61A, at most -4.2.

In the case of A20U G68A C76U C87G, the “polymerase ribozyme fitness (log ratio)” value was at most -4.2. To A21G A28C G141C belongs at most -4.2; to A21C A26U C57U C93A C116U G141U A147U, at most -4.2; to A21U A29G G50A A52U G70C G86U G92C U127G A138C, at most -4.2.

A21G C35A U55A A97U A121G: the “polymerase ribozyme fitness (log ratio)” value is at most -4.2. To A21U C27U A28U C57U belongs at most -4.2; to A21U A22G G88A A97G A106C C125U, at most -4.2; to A21C U61G C85U, 0.133. To A21C A47C G86U G140A U145G belongs at most -4.2. To A20U G58C C87G A122G G133A G136C belongs at most -4.2; to A20U U56G C85A G88U G100U C105G C118G, at most -4.2. As for A21C A23U A24U G92A A106G G133A, the “polymerase ribozyme fitness (log ratio)” value was at most -4.2. As to A21C A41U G71A A98U G136U A147U U148C, the “polymerase ribozyme fitness (log ratio)” value was at most -4.2.

Regarding A21C G65C A137U, the “polymerase ribozyme fitness (log ratio)” value was at most -4.2. The value for A21C A40C C99G was -0.927.

Regarding A21C A26U G140C U146A, the “polymerase ribozyme fitness (log ratio)” value was at most -4.2. The value for A21U A29U A39G U90G C95U was at most -4.2; that for A20U G80C C149G was at most -4.2. To A21C A22U A52G U55A G86C C87A U144G belongs at most -4.2; to A21U A41C G84A C99U A150C, at most -4.2; to A21C G68C C69A C93G U144G, at most -4.2.

Turning to A21C C93U, the “polymerase ribozyme fitness (log ratio)” value is -1.24. The value for A21U A40U C85U G141A was 0.05; that for A21C G70C C85U G128C was at most -4.2; that for A20U U53A G71U G86A G88A A89G U90C was at most -4.2. To A21G A23C U31A C32U A66C G83U belongs at most -4.2. To A21G G34U A97C A121G G136A A142U belongs at most -4.2. In the case of A21U A39U U61G G92U C108A G141A, the “polymerase ribozyme fitness (log ratio)” value was at most -4.2. The value for A21U A24C U56A C96U A138U was at most -4.2.

As to A20U U56G G65A C76U C85A G141C U148C, the “polymerase ribozyme fitness (log ratio)” value is at most -4.2. To A21C U77C C103A belongs at most -4.2; to A21C A91G C114G C125G, at most -4.2. With A21U A41U U55G G83A U145A, the “polymerase ribozyme fitness (log ratio)” value is -2.5. To A21G U33C A40C G62A G83C belongs at most -4.2; to A21U A60U G100A A137C, at most -4.2. The value for A21C U53A A91U C95G U134A U139C G152U was at most -4.2; that for A21G G25U U53A G81A C85A C131U was at most -4.2; that for A21U A23C U45C A64U C85U C105G C149G was at most -4.2.

Take A21G A22U G67A G86C C96U G117A: the “polymerase ribozyme fitness (log ratio)” value is at most -4.2.

In the case of A21G U77G G88C U135G G143U A147C, the “polymerase ribozyme fitness (log ratio)” value was at most -4.2. To A21U A29C A30C A39G U44A A49C U53A G68A C105U belongs at most -4.2; to A21G A89G A115C U148G, at most -4.2; to A21U A49G U55A G84A U104C A137U G140C A150C, at most -4.2. To A20U U31C A41C C51A belongs -2.21.

The values are drawn from the RNAGym collection of RNA variant scans (doi:10.1073/pnas.2313332121).
